Assay results taken from the supplement of paper PMC10369915.
The list shows a part of the results. Cut-off read from the data, not from the text of the source: active = 3.2 or more and inactive = the rest. Most of these values are background signal.
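Note: displayed peptides selected on beads carrying the immobilized SH2 domain, with library peptides lacking any tyrosine serving as negative controls.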

The binders below were run against SHP2 C-SH2 domain E139D (assay: enrichment score (SH2-bound / input frequency) (ratio); bacterial display of known human phosphotyrosine sites (pTyr-Var adds point mutants) read by sequencing; higher = stronger binding; tyrosines were phosphorylated by kinases first). Conditions: peptide library: pTyr-Var.
For PLKALYLQQRL [ATM_Y2969_P2974L], the enrichment score was inactive: 1.22. In the case of GSRGKYSSGFH [ATM_Y332_R337H], the enrichment score is reported as inactive: 0.774. For CKLCQYYLDHL [ATRX_Y1849_Y1847C], the enrichment score was inactive: 2.25. PAGSGYPAFLG [ATP6V1A_Y374_D371G_YF] was tested, and the enrichment score was inactive: 0.864. For KNSFKYFMSDD [ATRX_Y203_C200S_YF], the enrichment score was inactive: 1.21. With QMVDMYASSYM [AVPR2_Y124_G122D] the enrichment score was inactive: 1.4. With LRNIDYHRLDG [ATRX_Y2083_Y2084H] the enrichment score was inactive: 0.707. For NVADHYGVFKP [ATP6V0D2_Y271_YF], the enrichment score was inactive: 0.843. CKLCQYFLDHL [ATRX_Y1849_Y1847C_YF] was tested, and the enrichment score was inactive: 2.92. In the case of QMVGMYASSFM [AVPR2_Y124_YF], the enrichment score is reported as inactive: 0.586. With QMVGKYASSFM [AVPR2_Y124_M123K_YF] the enrichment score was inactive: 1.1. For LRNIDYFRLDG [ATRX_Y2083_YF], the enrichment score was inactive: 2.2. For SDMGQYQCLVF [AXL_Y115_T112M], the enrichment score was inactive: 0.786. In the case of GSRGKYSSGFR [ATM_Y332], the enrichment score is reported as inactive: 0.426. For ALEKTYNTFRS [B4GALNT2_Y538_YF], the enrichment score was inactive: 0.701. In the case of KFADVYVGICL [B3GALNT1_Y269_E266A], the enrichment score is reported as inactive: 0.994. For QMVGMYASSSM [AVPR2_Y124_Y128S], the enrichment score was inactive: 0.684. With NVADHYRVFKP [ATP6V0D2_Y271_G272R_YF] the enrichment score was inactive: 0.544. In the case of CWAVKYLQMVG [AVPR2_Y117_R113W], the enrichment score is reported as inactive: 2.69.

The binders below were run against SHP2 C-SH2 domain wild-type in the same assay as above. Conditions: peptide library: pTyr-Var.
With PLKALYLQQRL [ATM_Y2969_P2974L] the enrichment score was inactive: 1.08. GSRGKYSSGFH [ATM_Y332_R337H] was tested, and the enrichment score was inactive: 0.629. With CKLCQYYLDHL [ATRX_Y1849_Y1847C] the enrichment score was inactive: 2.37. For PAGSGYPAFLG [ATP6V1A_Y374_D371G_YF], the enrichment score was inactive: 0.792. In the case of KNSFKYFMSDD [ATRX_Y203_C200S_YF], the enrichment score is reported as inactive: 0.763. For QMVDMYASSYM [AVPR2_Y124_G122D], the enrichment score was inactive: 0.704. In the case of LRNIDYHRLDG [ATRX_Y2083_Y2084H], the enrichment score is reported as inactive: 0.997. In the case of NVADHYGVFKP [ATP6V0D2_Y271_YF], the enrichment score is reported as inactive: 0.552. With CKLCQYFLDHL [ATRX_Y1849_Y1847C_YF] the enrichment score was inactive: 3.09. QMVGMYASSFM [AVPR2_Y124_YF] was tested, and the enrichment score was inactive: 0.865. In the case of QMVGKYASSFM [AVPR2_Y124_M123K_YF], the enrichment score is reported as inactive: 0.921. LRNIDYFRLDG [ATRX_Y2083_YF] was tested, and the enrichment score was active: 4.44. In the case of SDMGQYQCLVF [AXL_Y115_T112M], the enrichment score is reported as inactive: 0.915. For GSRGKYSSGFR [ATM_Y332], the enrichment score was inactive: 0.407. For ALEKTYNTFRS [B4GALNT2_Y538_YF], the enrichment score was inactive: 0.645. With KFADVYVGICL [B3GALNT1_Y269_E266A] the enrichment score was inactive: 1.8. With QMVGMYASSSM [AVPR2_Y124_Y128S] the enrichment score was inactive: 0.471. With NVADHYRVFKP [ATP6V0D2_Y271_G272R_YF] the enrichment score was inactive: 0.583. In the case of CWAVKYLQMVG [AVPR2_Y117_R113W], the enrichment score is reported as inactive: 3.16.

What follows are binders tested against SHP2 N-SH2 domain L43F in the same assay as above. Conditions: peptide library: pTyr-Var.
PLKALYLQQRL [ATM_Y2969_P2974L] was tested, and the enrichment score was inactive: 0.989. In the case of GSRGKYSSGFH [ATM_Y332_R337H], the enrichment score is reported as inactive: 0.666. In the case of CKLCQYYLDHL [ATRX_Y1849_Y1847C], the enrichment score is reported as inactive: 2.26. PAGSGYPAFLG [ATP6V1A_Y374_D371G_YF] was tested, and the enrichment score was inactive: 0.806. With KNSFKYFMSDD [ATRX_Y203_C200S_YF] the enrichment score was inactive: 0.84. For QMVDMYASSYM [AVPR2_Y124_G122D], the enrichment score was inactive: 0.785. LRNIDYHRLDG [ATRX_Y2083_Y2084H] was tested, and the enrichment score was inactive: 1.12. With NVADHYGVFKP [ATP6V0D2_Y271_YF] the enrichment score was inactive: 0.712. CKLCQYFLDHL [ATRX_Y1849_Y1847C_YF] was tested, and the enrichment score was inactive: 3.12. In the case of QMVGMYASSFM [AVPR2_Y124_YF], the enrichment score is reported as inactive: 0.704. QMVGKYASSFM [AVPR2_Y124_M123K_YF] was tested, and the enrichment score was inactive: 0.955. For LRNIDYFRLDG [ATRX_Y2083_YF], the enrichment score was inactive: 0.923. In the case of SDMGQYQCLVF [AXL_Y115_T112M], the enrichment score is reported as inactive: 0.769. In the case of GSRGKYSSGFR [ATM_Y332], the enrichment score is reported as inactive: 0.437. For ALEKTYNTFRS [B4GALNT2_Y538_YF], the enrichment score was inactive: 0.635. KFADVYVGICL [B3GALNT1_Y269_E266A] was tested, and the enrichment score was inactive: 1.23. With QMVGMYASSSM [AVPR2_Y124_Y128S] the enrichment score was inactive: 0.706. For NVADHYRVFKP [ATP6V0D2_Y271_G272R_YF], the enrichment score was inactive: 0.663. In the case of CWAVKYLQMVG [AVPR2_Y117_R113W], the enrichment score is reported as inactive: 3.1.

Each binder was assayed against SHP2 N-SH2 domain T42A in the same assay as above. Conditions: peptide library: pTyr-Var.
With PLKALYLQQRL [ATM_Y2969_P2974L] the enrichment score was inactive: 0.964. For GSRGKYSSGFH [ATM_Y332_R337H], the enrichment score was inactive: 0.64. CKLCQYYLDHL [ATRX_Y1849_Y1847C] was tested, and the enrichment score was inactive: 2.35. PAGSGYPAFLG [ATP6V1A_Y374_D371G_YF] was tested, and the enrichment score was inactive: 0.862. With KNSFKYFMSDD [ATRX_Y203_C200S_YF] the enrichment score was inactive: 0.791. With QMVDMYASSYM [AVPR2_Y124_G122D] the enrichment score was inactive: 1.02. For LRNIDYHRLDG [ATRX_Y2083_Y2084H], the enrichment score was inactive: 0.886. In the case of NVADHYGVFKP [ATP6V0D2_Y271_YF], the enrichment score is reported as inactive: 0.589. With CKLCQYFLDHL [ATRX_Y1849_Y1847C_YF] the enrichment score was inactive: 2.61. In the case of QMVGMYASSFM [AVPR2_Y124_YF], the enrichment score is reported as inactive: 0.463. For QMVGKYASSFM [AVPR2_Y124_M123K_YF], the enrichment score was inactive: 0.844. LRNIDYFRLDG [ATRX_Y2083_YF] was tested, and the enrichment score was inactive: 1.41. SDMGQYQCLVF [AXL_Y115_T112M] was tested, and the enrichment score was inactive: 0.829. With GSRGKYSSGFR [ATM_Y332] the enrichment score was inactive: 0.446. ALEKTYNTFRS [B4GALNT2_Y538_YF] was tested, and the enrichment score was inactive: 0.5. KFADVYVGICL [B3GALNT1_Y269_E266A] was tested, and the enrichment score was inactive: 0.996. In the case of QMVGMYASSSM [AVPR2_Y124_Y128S], the enrichment score is reported as inactive: 0.746. For NVADHYRVFKP [ATP6V0D2_Y271_G272R_YF], the enrichment score was inactive: 0.583. With CWAVKYLQMVG [AVPR2_Y117_R113W] the enrichment score was inactive: 2.97.

The binders below were run against SHP2 N-SH2 domain T52S in the same assay as above. Conditions: peptide library: pTyr-Var.
With PLKALYLQQRL [ATM_Y2969_P2974L] the enrichment score was inactive: 1.2. For GSRGKYSSGFH [ATM_Y332_R337H], the enrichment score was inactive: 0.789. For CKLCQYYLDHL [ATRX_Y1849_Y1847C], the enrichment score was inactive: 2.32. In the case of PAGSGYPAFLG [ATP6V1A_Y374_D371G_YF], the enrichment score is reported as inactive: 0.95. With KNSFKYFMSDD [ATRX_Y203_C200S_YF] the enrichment score was inactive: 0.911. QMVDMYASSYM [AVPR2_Y124_G122D] was tested, and the enrichment score was inactive: 1.06. With LRNIDYHRLDG [ATRX_Y2083_Y2084H] the enrichment score was inactive: 0.876. NVADHYGVFKP [ATP6V0D2_Y271_YF] was tested, and the enrichment score was inactive: 1.05. For CKLCQYFLDHL [ATRX_Y1849_Y1847C_YF], the enrichment score was inactive: 2.64. In the case of QMVGMYASSFM [AVPR2_Y124_YF], the enrichment score is reported as inactive: 0.489. For QMVGKYASSFM [AVPR2_Y124_M123K_YF], the enrichment score was inactive: 0.84. LRNIDYFRLDG [ATRX_Y2083_YF] was tested, and the enrichment score was inactive: 0.861. With SDMGQYQCLVF [AXL_Y115_T112M] the enrichment score was inactive: 0.76. With GSRGKYSSGFR [ATM_Y332] the enrichment score was inactive: 0.427. In the case of ALEKTYNTFRS [B4GALNT2_Y538_YF], the enrichment score is reported as inactive: 0.756. For KFADVYVGICL [B3GALNT1_Y269_E266A], the enrichment score was inactive: 1.77. With QMVGMYASSSM [AVPR2_Y124_Y128S] the enrichment score was inactive: 0.611. NVADHYRVFKP [ATP6V0D2_Y271_G272R_YF] was tested, and the enrichment score was inactive: 0.606. In the case of CWAVKYLQMVG [AVPR2_Y117_R113W], the enrichment score is reported as inactive: 2.55.

The binders below were run against SHP2 N-SH2 domain wild-type in the same assay as above. Conditions: peptide library: pTyr-Var.
With PLKALYLQQRL [ATM_Y2969_P2974L] the enrichment score was inactive: 1.14. With GSRGKYSSGFH [ATM_Y332_R337H] the enrichment score was inactive: 0.69. In the case of CKLCQYYLDHL [ATRX_Y1849_Y1847C], the enrichment score is reported as inactive: 1.96. With PAGSGYPAFLG [ATP6V1A_Y374_D371G_YF] the enrichment score was inactive: 0.95. In the case of KNSFKYFMSDD [ATRX_Y203_C200S_YF], the enrichment score is reported as inactive: 0.873. In the case of QMVDMYASSYM [AVPR2_Y124_G122D], the enrichment score is reported as inactive: 0.741. With LRNIDYHRLDG [ATRX_Y2083_Y2084H] the enrichment score was inactive: 0.987. For NVADHYGVFKP [ATP6V0D2_Y271_YF], the enrichment score was inactive: 0.763. CKLCQYFLDHL [ATRX_Y1849_Y1847C_YF] was tested, and the enrichment score was inactive: 2.4. In the case of QMVGMYASSFM [AVPR2_Y124_YF], the enrichment score is reported as inactive: 0.807. For QMVGKYASSFM [AVPR2_Y124_M123K_YF], the enrichment score was inactive: 1.03. With LRNIDYFRLDG [ATRX_Y2083_YF] the enrichment score was inactive: 0.87. For SDMGQYQCLVF [AXL_Y115_T112M], the enrichment score was inactive: 1.18. For GSRGKYSSGFR [ATM_Y332], the enrichment score was inactive: 0.345. In the case of ALEKTYNTFRS [B4GALNT2_Y538_YF], the enrichment score is reported as inactive: 0.812. In the case of KFADVYVGICL [B3GALNT1_Y269_E266A], the enrichment score is reported as inactive: 1.68. For QMVGMYASSSM [AVPR2_Y124_Y128S], the enrichment score was inactive: 0.417. For NVADHYRVFKP [ATP6V0D2_Y271_G272R_YF], the enrichment score was inactive: 0.708. With CWAVKYLQMVG [AVPR2_Y117_R113W] the enrichment score was inactive: 3.08.
